The whole screen tested about 110,000 compounds, of which about 230 (0.21%) showed an effect of 50% or more. Some of the results follow.
Target: DPAP1 (Plasmodium falciparum, UniProt Q8IIJ9)
Experiment: primary screen, percent inhibition; read by cleavage of a fluorogenic dipeptide substrate; higher = more effect of the substance
Parameters: species or system P. falciparum D10 trophozoite lysates; single well
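Also: 30 min substrate incubation versus DMSO and 10 µM JCP410 controls.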

Sequence of DPAP1 (Q8IIJ9 whole entry, looked up): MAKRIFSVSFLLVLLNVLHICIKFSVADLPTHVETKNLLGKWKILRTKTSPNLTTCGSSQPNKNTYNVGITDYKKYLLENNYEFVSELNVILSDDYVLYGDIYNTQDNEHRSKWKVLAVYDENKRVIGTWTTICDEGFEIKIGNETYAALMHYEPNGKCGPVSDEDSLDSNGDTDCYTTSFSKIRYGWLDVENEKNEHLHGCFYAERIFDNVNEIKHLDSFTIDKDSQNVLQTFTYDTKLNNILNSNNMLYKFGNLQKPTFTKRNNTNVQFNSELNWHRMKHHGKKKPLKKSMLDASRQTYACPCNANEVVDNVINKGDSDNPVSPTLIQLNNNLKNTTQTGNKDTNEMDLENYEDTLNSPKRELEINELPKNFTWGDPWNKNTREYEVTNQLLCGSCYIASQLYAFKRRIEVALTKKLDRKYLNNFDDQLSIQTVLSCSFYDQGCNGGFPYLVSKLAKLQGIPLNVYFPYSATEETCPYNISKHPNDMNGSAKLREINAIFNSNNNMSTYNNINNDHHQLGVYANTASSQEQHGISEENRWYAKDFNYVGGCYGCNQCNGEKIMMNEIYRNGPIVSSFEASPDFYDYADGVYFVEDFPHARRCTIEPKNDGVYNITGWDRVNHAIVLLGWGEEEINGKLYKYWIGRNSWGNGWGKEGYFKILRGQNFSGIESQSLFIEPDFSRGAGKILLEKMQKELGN

Compared with `COc1ccc(/C=C/c2nn3c(-c4ccccc4Cl)nnc3s2)cc1`, `Cc1ccccc1/C=C1\N=C(c2ccc(Br)cc2)OC1=O` is lower in “% Inhibition @ 10 uM” value: 3.38% for the first, 1.25% for the second.

Compared with `CCOC(=O)c1c(NC(=O)c2ccccc2Cl)sc2c1CCCC2=O`, `CCOC(=O)c1c(NC(=O)CSc2nnnn2-c2ccccc2)sc2c1CCCCC2` is higher in “% Inhibition @ 10 uM” value: -5.08% for the first, 3.43% for the second.

Going from `Cc1ccc(Cn2nnc3c(=O)n(CC(=O)c4ccc(Cl)cc4)cnc32)cc1` to `CC1=C(c2ccc(C)c(C)c2)S(=O)(=O)N(Cc2ccc(C(=O)NCCc3ccccc3)cc2)C1=O`, the “% Inhibition @ 10 uM” value falls from 4.41% to -1.6%.

Going from `COc1cccc(OCCNC(=O)Cc2cccc3ccccc23)c1` to `COc1ccc(OC)c(NC(=O)c2ccccc2OC)c1`, the “% Inhibition @ 10 uM” value rises from -3.76% to 6.79%.

Going from `Cc1cc(C)c2c(-n3cccc3)c(C(=O)N3CCN(c4ccccn4)CC3)sc2n1` to `Cc1c(CN2CCN(c3ccccn3)CC2)c(=O)n(-c2ccccc2)n1C`, the “% Inhibition @ 10 uM” value rises from 0.623% to 2.99%.

First: CCC(Cc1ccccc1)NC(=O)c1ccc2nc(N3CCOCC3)sc2c1 (stereo not drawn)
Second: CCn1cc(Cl)c(C(=O)Nc2cccc(CN3CCOCC3)c2)n1
The “% Inhibition @ 10 uM” value of the first is higher: 0.828% for the first, 0.726% for the second.

Compared with `O=C(Nc1cccc(Cl)c1)C(O)c1ccccc1` (stereo not drawn), `NC(CC(=O)O)c1ccccc1` (stereo not drawn) is lower in “% Inhibition @ 10 uM” value: 0.847% for the first, 0.503% for the second.

First: O=C(CCCOc1ccc(Cl)cc1Cl)n1nnc2ccccc21
Second: Cc1cc(Cl)ccc1OCC(O)CN1CCC(O)(c2ccc(Cl)cc2)CC1 (stereo not drawn)
The “% Inhibition @ 10 uM” value of the first is higher: -4.13% for the first, -6.86% for the second.

Compared with `COc1cc(OC)c(OC)cc1CN1CCc2ccccc2C1`, `COc1cc(OC)cc(C(=O)Nc2ccccc2Cl)c1` is lower in “% Inhibition @ 10 uM” value: 8.32% for the first, 0.956% for the second.

Going from `O=C(c1ccc(N2CCN(C(=O)c3cccs3)CC2)cc1)c1cccc(F)c1` to `CC(=O)c1ccc(N2CCN(Cc3ccc(-c4ccccc4)cc3)CC2)cc1`, the “% Inhibition @ 10 uM” value falls from 5.29% to -3.27%.

Compared with `Cc1cc(C)c(S(=O)(=O)Nc2ccccc2C#N)c(C)c1`, `COc1ccccc1C(=O)Nc1ccc(S(=O)(=O)Nc2onc(C)c2C)cc1` is higher in “% Inhibition @ 10 uM” value: -1.42% for the first, 0.873% for the second.

First: COc1ccc(-c2c(C#N)c(N)nc3c2CCCC3)cc1COCC(F)(F)F
Second: COc1ccccc1CNCc1ccccc1C(F)(F)F
The “% Inhibition @ 10 uM” value of the first is lower: -0.67% for the first, 6.12% for the second.

Compared with `N#C/C(=C\c1ccccc1C(F)(F)F)C(N)=S`, `CCOC(=O)c1cnn2c(C(F)(F)F)cc(-c3ccccc3)nc12` is higher in “% Inhibition @ 10 uM” value: -3.78% for the first, 6.09% for the second.

Going from `Oc1c2cnnc-2nc2ccccn12` to `CC1(C)Cc2c(ccc3ccccc23)/C(=C/C(=O)N2CCCCCC2)N1`, the “% Inhibition @ 10 uM” value rises from -9.37% to 0.215%.

Going from `CCCNC(=O)c1cc(-c2ccc(C)o2)nc2ccccc12` to `CCCCc1nc(SCC(=O)NCc2ccccc2)c2c3c(sc2n1)COC(C)(C)C3`, the “% Inhibition @ 10 uM” value falls from 0.993% to 0.565%.

Going from `CCOC(=O)C1=C(CC)OC(N)=C(C#N)C1c1ccc(Cl)c(Cl)c1` (stereo not drawn) to `CCOc1cc(C2C(C#N)=C(N)Oc3c2c(C)nn3-c2cccc(Cl)c2)ccc1O` (stereo not drawn), the “% Inhibition @ 10 uM” value falls from 0.317% to -1.6%.

Compared with `COCCNC(=O)CSc1nc(-c2ccc(F)cc2)cc(C(F)(F)F)n1`, `O=C(CSc1nc2cccnc2[nH]1)c1ccc(Br)cc1` is higher in “% Inhibition @ 10 uM” value: 2.46% for the first, 3.24% for the second.

First: CCNc1nc(NCC)nc(-n2nc(C)cc2C)n1
Second: Nc1nc(CN2CCCCCC2)nc(Nc2ccccc2)n1
The “% Inhibition @ 10 uM” value of the first is higher: 3.76% for the first, -7.78% for the second.

First: CCOc1ccc(C2c3c(oc4ccccc4c3=O)C(=O)N2c2nncs2)cc1OC (stereo not drawn)
Second: COc1ccc(C2C=C(c3ccc(Br)cc3)Nc3ncnn32)cc1OC (stereo not drawn)
The “% Inhibition @ 10 uM” value of the first is lower: -5.24% for the first, 4.05% for the second.

Going from `O=C(Nc1ccccc1-n1cccc1)c1cccs1` to `O=C(O)CCCNC(=O)C(O)(c1ccccc1)c1ccccc1`, the “% Inhibition @ 10 uM” value falls from 1.28% to -5.4%.

First: Brc1ccccc1OCCCCN1CCCC1
Second: O=[N+]([O-])c1ccc(CN2CCCCCCC2)cc1
The “% Inhibition @ 10 uM” value of the first is lower: 3.35% for the first, 6.08% for the second.

Going from `O=C(Nc1ccc(Br)cc1)c1ccc(Cl)c([N+](=O)[O-])c1` to `Cc1nn(Cc2ccc(C(=O)Nc3ccc(C(=O)O)cc3)o2)c(C)c1Cl`, the “% Inhibition @ 10 uM” value rises from -5.32% to -3.19%.

First: CC(Cc1cccc(C(F)(F)F)c1)N1CCN(C)CC1 (stereo not drawn)
Second: COc1ccccc1/C=C/CN1CCN(c2cccc(C(F)(F)F)c2)CC1
The “% Inhibition @ 10 uM” value of the first is higher: -1.75% for the first, -5.26% for the second.

Compared with `COc1ccc(/N=C2\SC(CC(=O)Nc3cccc(C)c3C)C(=O)N2C)cc1` (stereo not drawn), `CCOC(=O)c1ccc2ncc(C(=O)OCC)c(NCCCOC(=O)c3ccc(OC)cc3)c2c1` is higher in “% Inhibition @ 10 uM” value: 2.65% for the first, 3.16% for the second.

Compared with `CC(=O)C1=NN(c2ccccc2C)C2C(=O)N(c3ccccc3Cl)C(=O)C12` (stereo not drawn), `CC(C)N(CCCNC(=O)CCN1C(=O)c2ccccc2Sc2ncccc21)Cc1ccccc1` is higher in “% Inhibition @ 10 uM” value: -1.28% for the first, 2.86% for the second.

First: CCCCc1ccc(C2C(C#N)=C(N)OC3=C2C(=O)CC(C)(C)C3)s1 (stereo not drawn)
Second: CSc1ccc(NC(=O)c2sc3nc(N)c(C#N)cc3c2N)cc1
The “% Inhibition @ 10 uM” value of the first is lower: -3.42% for the first, 2.68% for the second.

First: Cc1nn(CCCC(=O)N2CCN(Cc3ccc4c(c3)OCO4)CC2)c(=O)c2cc3sccc3n12
Second: Cn1c(C(=O)N2CCCC(C(=O)N3CCc4ccccc4C3)C2)cc2sccc21 (stereo not drawn)
The “% Inhibition @ 10 uM” value of the first is higher: 3.4% for the first, -3% for the second.

First: c1ccc(C(CCNc2ncnc3[nH]cnc23)c2ccccc2)cc1
Second: CCSc1nc(O)c(C(c2ccccc2)c2ccccc2)c(O)n1
The “% Inhibition @ 10 uM” value of the first is lower: -11.3% for the first, 3.35% for the second.

Going from `Brc1ccc2[nH]c3c(c2c1)CCCC3NCCc1ccccc1` (stereo not drawn) to `O=S(=O)(NC1CCN(Cc2ccccc2)CC1)c1ccc(-c2ccc(O)nn2)s1`, the “% Inhibition @ 10 uM” value rises from -0.0404% to 3.1%.

First: CC(C)C[C@H](NC(=O)OCCc1ccccc1)C(=O)NCC#N
Second: CCOC(=O)c1c(C)c(C(=O)NCCCOC(C)C)c(C)n1C
The “% Inhibition @ 10 uM” value of the first is higher: -0.0207% for the first, -1.66% for the second.

Going from `c1ccc(CN2CCC(NC3CC3)CC2)cc1` to `O=CN1CCN(C2CCC(c3ccccc3)CC2)CC1` (stereo not drawn), the “% Inhibition @ 10 uM” value falls from -3.27% to -5.11%.

First: COc1cc(/C=C2\C(=O)ON=C2C)cc(Br)c1O
Second: CCOc1cccc(/C=C2/NC(=O)N(CC)C2=O)c1O
The “% Inhibition @ 10 uM” value of the first is lower: -7.09% for the first, -2.09% for the second.

Compared with `CC(C)(C)C(=O)Nc1sc2c(c1C#N)CCC2`, `CCN(CC)C(=O)C1CCCN(Cc2cc(Br)ccc2OC)C1` (stereo not drawn) is higher in “% Inhibition @ 10 uM” value: -4.49% for the first, -1.93% for the second.
